For 26 compounds, cytotoxicity call and growth inhibition call results are on record in the antibiotic and cytotoxicity screens of Wong et al. (2023).

In one assay the test system is HSkMC. Put plainly: cytotoxicity call (relative viability < 0.9). The following applies: 10 µM.
Another assay has as its system HepG2. The assay can be described thus: cytotoxicity call (relative viability < 0.9). Conditions: 10 µM.
Another assay concerns S. aureus RN4220. The assay can be described thus: growth inhibition call (relative growth <= 0.2). Conditions: 50 µM.

The list shows a part of the results.

Consider `COc1ccc(CN(C)C[C@H]2Oc3c(NC(=O)Nc4cccc5ccccc45)cccc3C(=O)N([C@@H](C)CO)C[C@H]2C)cc1`, for which the cytotoxicity call with HSkMC and with HepG2 was “inactive” each time. The growth inhibition call in the assay with S. aureus RN4220 is “inactive”.

For the compound `C[C@@H]1CN([C@H](C)CO)C(=O)c2cc(NC(=O)Nc3ccc(C(F)(F)F)cc3)ccc2O[C@H]1CN(C)Cc1ccc(-c2ccccc2)cc1`, the cytotoxicity call in the assay with HSkMC and with HepG2 was “active” in each case. Further, in the assay with S. aureus RN4220, the growth inhibition call was “inactive”.

Take `C[C@H]1COC(=O)[C@@H](NC(=O)OCC2c3ccccc3-c3ccccc32)CC=CC[C@@H](CC(=O)NCCO)C(=O)N1`: the cytotoxicity call in the assay with HSkMC and in the assay on HepG2 was “inactive” each time. Besides, the growth inhibition call with S. aureus RN4220 was “inactive”.

Turning to `Cn1c(=O)c2c(ncn2C)n(C)c1=O`, the cytotoxicity call in the assay with HSkMC and in the assay with HepG2 was “inactive” each time. The growth inhibition call with S. aureus RN4220 was “inactive”.

For `C[C@H]1CN([C@@H](C)CO)C(=O)c2cc(NS(=O)(=O)c3cn(C)cn3)ccc2O[C@H]1CN(C)C(=O)Nc1ccccc1`, the cytotoxicity call in the assay with HSkMC and in the assay on HepG2 was “inactive” in each case. Also, the growth inhibition call with S. aureus RN4220 is “inactive”.

As for `C[C@H](CO)N1C[C@H](C)[C@H](CN(C)C(=O)CCCN(C)C)OCCCC[C@H](C)Oc2ccc(NC(=O)Nc3ccc(C(F)(F)F)cc3)cc2C1=O`, the cytotoxicity call in the assay on HSkMC and in the assay with HepG2 was “inactive” throughout. The growth inhibition call in the assay with S. aureus RN4220 is “inactive”.

In the case of `C[C@@H]1CN([C@@H](C)CO)S(=O)(=O)c2ccc(-c3ccccc3F)cc2O[C@H]1CN(C)S(C)(=O)=O`, the cytotoxicity call in the assay on HSkMC and in the assay on HepG2 was “inactive” throughout. In addition, the growth inhibition call with S. aureus RN4220 was “inactive”.

`C[C@H]1CN([C@@H](C)CO)S(=O)(=O)c2ccc(Br)cc2O[C@H]1CN(C)C(=O)c1ccccc1F`: the cytotoxicity call in the assay on HSkMC and with HepG2 was “inactive” each time. The growth inhibition call in the assay with S. aureus RN4220 was “inactive”.

With `C[C@@H]1CCCCO[C@H](CN(C)Cc2ccccc2)[C@H](C)CN([C@H](C)CO)C(=O)c2cc(NC(=O)NC3CCCCC3)ccc2O1`, the cytotoxicity call in the assay with HSkMC and in the assay with HepG2 was “inactive” each time. Also, the growth inhibition call in the assay with S. aureus RN4220 is “inactive”.

As to `C[C@@H]1CCCCO[C@H](CN(C)Cc2ccc(C(=O)O)cc2)[C@@H](C)CN([C@@H](C)CO)C(=O)c2cc(NC(=O)Cc3ccccc3)ccc2O1`, the cytotoxicity call in the assay on HSkMC and with HepG2 was “inactive” throughout. The growth inhibition call in the assay with S. aureus RN4220 is “inactive”.

`C[C@@H]1CN([C@@H](C)CO)C(=O)c2cccc(NS(=O)(=O)c3cccs3)c2O[C@H]1CN(C)S(=O)(=O)c1cn(C)cn1`: the cytotoxicity call in the assay on HSkMC and in the assay on HepG2 was “inactive” each time. For the same compound, in the assay on S. aureus RN4220, the growth inhibition call is “inactive”.

Regarding `Cc1ccccc1-n1cc[nH]c1=S`, the cytotoxicity call in the assay with HSkMC and in the assay on HepG2 was “inactive” in each case. In addition, the growth inhibition call in the assay on S. aureus RN4220 was “inactive”.

Take `C[C@@H]1CN([C@@H](C)CO)S(=O)(=O)c2ccc(C#Cc3ccccc3)cc2O[C@H]1CN(C)C(=O)Cc1ccccn1`: the cytotoxicity call in the assay on HSkMC and with HepG2 was “inactive” in each case. Besides, in the assay on S. aureus RN4220, the growth inhibition call was “inactive”.

For the compound `C[C@H](CO)N1C[C@H](C)[C@@H](CN(C)CC2CCCCC2)OCCCC[C@H](C)Oc2ccc(NS(=O)(=O)c3ccc(F)cc3)cc2C1=O`, the cytotoxicity call in the assay on HSkMC and with HepG2 was “inactive” in each case. Also, the growth inhibition call in the assay on S. aureus RN4220 is “inactive”.

For `CCC(=O)N[C@H]1C=C[C@@H](CC(=O)OC)O[C@@H]1CO`, the cytotoxicity call with HSkMC and in the assay with HepG2 was “inactive” throughout. Also, in the assay on S. aureus RN4220, the growth inhibition call is “inactive”.

`O=C(N[C@H]1C=C[C@H](CC(=O)N2CCOCC2)O[C@H]1CO)c1ccccn1`: the cytotoxicity call in the assay on HSkMC and in the assay with HepG2 was “inactive” in each case. In addition, in the assay with S. aureus RN4220, the growth inhibition call was “inactive”.

As to `Cc1noc(C)c1NC(=O)N(C)C[C@H]1Oc2ccc(NS(=O)(=O)c3c(C)noc3C)cc2C(=O)N([C@H](C)CO)C[C@H]1C`, the cytotoxicity call with HSkMC and in the assay with HepG2 was “inactive” throughout. Also, the growth inhibition call in the assay with S. aureus RN4220 is “inactive”.

As to `C[n+]1ccc(/C2=C3\C=CC(=N3)/C(c3cc[n+](C)cc3)=c3/cc/c4[n]3[Fe][n]3c2ccc3/C(c2cc[n+](C)cc2)=C2/C=CC(=N2)\C=4c2cc[n+](C)cc2)cc1`, the cytotoxicity call in the assay with HSkMC was “inactive”. In addition, the cytotoxicity call in the assay on HepG2 is “active”. Further, the growth inhibition call with S. aureus RN4220 is “inactive”.

Regarding `C[C@@H]1CCCCO[C@@H](CN(C)S(=O)(=O)c2ccc(F)cc2)[C@H](C)CN([C@@H](C)CO)C(=O)c2cc(NC(=O)NC3CCCCC3)ccc2O1`, the cytotoxicity call with HSkMC and with HepG2 was “inactive” throughout. In the assay with S. aureus RN4220, the growth inhibition call is “inactive”.

In the case of `COc1ccccc1CNC(=O)C[C@H]1CC[C@H]2[C@@H](COC[C@@H](O)CN2C(=O)Nc2ccc(Cl)cc2)O1`, the cytotoxicity call with HSkMC and in the assay with HepG2 was “inactive” throughout. Further, in the assay on S. aureus RN4220, the growth inhibition call was “inactive”.

In the case of `C[C@@H]1CN([C@H](C)CO)C(=O)c2cc(NC(=O)Nc3ccc(C(F)(F)F)cc3)ccc2O[C@@H]1CN(C)Cc1ccc(-c2ccccc2)cc1`, the cytotoxicity call in the assay with HSkMC and in the assay with HepG2 was “active” each time. Moreover, the growth inhibition call in the assay with S. aureus RN4220 is “inactive”.

Turning to `COc1ccc2c3c(n(c2c1)C)[C@H](CO)N(Cc1cc(cc(c1)OC)OC)C[C@]13CN(C1)S(=O)(=O)c1cn(cn1)C`, the cytotoxicity call in the assay with HSkMC and with HepG2 was “inactive” in each case. The growth inhibition call with S. aureus RN4220 is “inactive”.

In the case of `C[C@H]1CCCCO[C@H](CN(C)C(=O)CCCN(C)C)[C@@H](C)CN([C@@H](C)CO)C(=O)c2cc(N(C)C)ccc2O1`, the cytotoxicity call with HSkMC and with HepG2 was “inactive” in each case. Besides, in the assay on S. aureus RN4220, the growth inhibition call is “inactive”.

Regarding `C[C@H]1CN([C@@H](C)CO)C(=O)c2ccccc2-c2ccccc2CO[C@@H]1CN(C)Cc1ccc(C(F)(F)F)cc1`, the cytotoxicity call in the assay with HSkMC and with HepG2 was “inactive” in each case. Also, the growth inhibition call with S. aureus RN4220 was “inactive”.

With `C[C@@H]1CN([C@@H](C)CO)C(=O)c2cc(NC(=O)C3CCCCC3)ccc2O[C@@H](C)CCCCO[C@@H]1CN(C)C(=O)C1CCCCC1`, the cytotoxicity call in the assay on HSkMC (human skeletal muscle cells) and with HepG2 was “inactive” throughout. Moreover, in the assay with S. aureus RN4220, the growth inhibition call was “inactive”.

Take `OCCNC(=S)c1ccccc1`: the cytotoxicity call in the assay with HSkMC and in the assay with HepG2 was “inactive” in each case. For the same compound, the growth inhibition call in the assay on S. aureus RN4220 is “inactive”.
